In paper PMC3411106, “Structural analysis of the human SYCE2–TEX12 complex provides molecular insights into synaptonemal complex assembly” (Open Biology, 2012):
These are yes or no findings as the source states them, for the method shown. Some binding calls cover weakened binding; strength is not graded here. For some of these results: Where a sequence is shown, tags or fusion partners need not be part of it.

What was measured:
[1] = target: SYCE2_(57–165)–TEX12 complex (hetero-octamer) (human) (UniProt Q6PIF2+Q9BXU0); assay: negative-stain transmission electron microscopy; purified complexes at 100 µM on carbon-coated grids, 0.1 per cent uranyl acetate; filament formation; both purified
[2] = target: SYCE2_(57–165)–TEX12_(49–123) complex (hetero-octamer) (human) (UniProt Q6PIF2+Q9BXU0); assay: as above
MBP–SYCE2_(57–88) = target: T1, MBP–SYCE2_(57–88) (human, UniProt Q6PIF2 57-88); assay: SEC-MALS; 100 µl at 1–5 mg ml^−1 on Superdex 200 10/300 GL; 20 mM Tris pH 8.0, 150 mM KCl, 2 mM DTT; purified complexes or purified fusion proteins; both purified
T1 construct: human SYCE2, residues 57–88 (α1 region); Monomer by SEC–MALS; also called α1 region of SYCE2; source: E. coli Rosetta 2 (DE3); co-expressed (pRSFDuet-1), in clarified lysate for the pull-down; individually expressed, purified on amylose resin for SEC–MALS; not shown: MBP, N-terminal, kept
T1 chain (looked up): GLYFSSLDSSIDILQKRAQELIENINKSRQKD

[3] = target: MBP–TEX12_(87–123) (human) (UniProt Q9BXU0); assay: as above

B1: SYCE2_(57–165)–TEX12 complex (hetero-octamer) (complex, UniProt Q6PIF2 57-165; Q9BXU0 1-123)
chain 1: GLYFSSLDSSIDILQKRAQELIENINKSRQKDHALMTNFRNSLKTKVSDLTEKLEERIYQIYNDHNKIIQEKLQEFTQKMAKISHLETELKQVCHSVETVYKDLCLQPE
chain 2: MMANHLVKPDNRNCKRPRELESPVPDSPQLSSLGKSDSSFSEISGLFYKDEALEKDLNDVSKEINLMLSTYAKLLSERAAVDASYIDEIDELFKEANAIENFLIQKREFLRQRFTVIANTLHR
[1]
  binding: binds

B2: SYCE2_(57–165)–TEX12_(49–123) complex (hetero-octamer) (complex, UniProt Q6PIF2 57-165; Q9BXU0 49-123)
chain 1: B1 chain 1
chain 2: KDEALEKDLNDVSKEINLMLSTYAKLLSERAAVDASYIDEIDELFKEANAIENFLIQKREFLRQRFTVIANTLHR
[2]
  binding: binds

## GLYFSSLDSSIDILQKRAQELIENINKSRQKD (domain or fragment, UniProt Q6PIF2 57-88) [MBP–SYCE2_(57–88)]
MBP–SYCE2_(57–88)
  binding: no binding (tested: 1–5 mg ml^−1 loaded)

## DEIDELFKEANAIENFLIQKREFLRQRFTVIANTLHR (domain or fragment, UniProt Q9BXU0 87-123) [MBP–TEX12_(87–123)]
[3]
  binding: no binding (tested: 1–5 mg ml^−1 loaded)
